Structures are written as SMILES. Structures can show the parent of a compound that is named as a salt. This is one part of the list. Repeats are few or missing, and single values can be far off.

One test deals with OVCAR4. Nature of the test: log2 surviving fraction (library drug vs vehicle, or drug + carboplatin vs carboplatin alone; relative to plate median); ovarian cancer lines: OVCAR4 is platinum-sensitive and Ov4Carbo platinum-resistant; higher = more cell survival. The conditions noted are these: library drug concentration 10 µM; 7 days; carboplatin co-treatment 0 µM.
Take `CCCCC(CC)CNC(=N)NC(=N)NCCCCCCNC(=N)NC(=N)NCC(CC)CCCC` (configuration not stated) [Alexidine HCl]: the log2 surviving fraction is -9.23. Same read-out and setting: the result for `CCCNC(C)C(=O)Nc1ccccc1C` (configuration not stated) [Prilocaine] reads 1.03. As to `CC(=O)OCC(=O)[C@@]1(O)CC[C@H]2[C@@H]3CCC4=CC(=O)CC[C@]4(C)[C@H]3C(=O)C[C@@]21C` [Cortisone acetate (Cortone)], the log2 surviving fraction was determined as 0.58. The same measure, in the same setting: the same measure for `COc1ccc2[nH]c([S@@+]([O-])Cc3ncc(C)c(OC)c3C)nc2c1` [Esomeprazole magnesium (Nexium)]: -0.000941; for `CC1=C(/C=C/C(C)=C/C=C/C(C)=C/C=C/C=C(C)/C=C/C=C(C)/C=C/C2=C(C)CCCC2(C)C)C(C)(C)CCC1` [Beta Carotene]: 1.03; for `CSc1nc2cc(Cl)c(Oc3cccc(Cl)c3Cl)cc2[nH]1` [Triclabendazole]: 0.0637.

Turning to `O=C(O)c1cc(=O)c2ccccc2o1` [Chromocarb], the log2 surviving fraction is -0.423.

Regarding `Nc1nc(F)nc2c1ncn2[C@@H]1O[C@H](CO)[C@@H](O)[C@@H]1O` [Fludarabine (Fludara)], the log2 surviving fraction was -0.345. On the same count and under the same terms, the same measure for `COCCCOc1cc(C[C@@H](C[C@H](N)[C@@H](O)C[C@H](C(=O)NCC(C)(C)C(N)=O)C(C)C)C(C)C)ccc1OC` [Aliskiren hemifumarate]: -0.434; for `CC[C@@H]1C(=O)OC[C@@H]1Cc1cncn1C` [Pilocarpine HCl]: 1.1. On the same count and under the same terms, the result for `COc1ccc([C@@H]2Sc3ccccc3N(CCN(C)C)C(=O)[C@@H]2OC(C)=O)cc1` [Diltiazem HCl (Tiazac)] reads 0.318; that for `O=c1n(CCCN2CCN(c3cccc(Cl)c3)CC2)nc2ccccn12` [Trazodone hydrochloride (Desyrel)], 0.197; that for `C[N+]1(C)[C@@H]2C[C@@H](OC(=O)C(O)(c3cccs3)c3cccs3)C[C@H]1[C@@H]1O[C@@H]12` [Tiotropium Bromide hydrate], 0.162.

Staying with this test, now noted: library drug concentration 10 µM; 7 days; carboplatin co-treatment 5 µM.
As to `CCCC(=O)OCOC(=O)C1=C(C)NC(C)=C(C(=O)OC)C1c1cccc(Cl)c1Cl` (configuration not stated) [Cleviprex (Clevidipine)], the log2 surviving fraction was 0.19. Still for that read-out and setting: the result for `C=CCN1CC[C@]23c4c5ccc(O)c4O[C@H]2C(=O)CC[C@@]3(O)[C@H]1C5` [Naloxone HCl] reads 0.86; that for `CC(C)(Oc1ccc(Cl)cc1)C(=O)O` [Clofibric acid], 0.162.

For the compound `CCCCCCCCCC(=O)N[C@H]1[C@H](Oc2c3cc4cc2Oc2ccc(cc2Cl)[C@@H](O[C@@H]2O[C@H](CO)[C@@H](O)[C@H](O)[C@H]2NC(C)=O)[C@@H]2NC(=O)[C@H](NC(=O)[C@@H]4NC(=O)[C@H]4NC(=O)[C@@H](Cc5ccc(c(Cl)c5)O3)NC(=O)[C@H](N)c3ccc(O)c(c3)Oc3cc(O)cc4c3)c3ccc(O)c(c3)-c3c(OC4O[C@H](CO)[C@@H](O)[C@H](O)[C@@H]4O)cc(O)cc3[C@@H](C(=O)O)NC2=O)O[C@H](CO)[C@@H](O)[C@@H]1O` (some centres not stated) [Teicoplanin], the log2 surviving fraction is -0.681. Same read-out and setting: the result for `Cc1cc(N)c2ccccc2[n+]1CCCCCCCCCC[n+]1c(C)cc(N)c2ccccc21` [Dequalinium chloride] reads -6.38; that for `C/C(=C(\CCOP(=O)(O)O)SC(=O)c1ccccc1)N(C=O)Cc1cnc(C)nc1N` [Benfotiamine], 0.733; that for `OC(Cn1cncn1)(Cn1cncn1)c1ccc(F)cc1F` [Fluconazole], 1.5.

As to `CNCC[C@@H](Oc1ccccc1C)c1ccccc1` [Atomoxetine HCl], the log2 surviving fraction is -0.134. On the same count and under the same terms, the same measure for `Oc1c(Cl)cc(Cl)c2cccnc12` [Chloroxine]: -3.64; for `COCCOC(=O)C1=C(C)NC(C)=C(C(=O)OC/C=C/c2ccccc2)C1c1cccc([N+](=O)[O-])c1` (configuration not stated) [Cilnidipine]: -2.13; for `CC(C)c1nc(N(C)S(C)(=O)=O)nc(-c2ccc(F)cc2)c1/C=C/[C@@H](O)C[C@@H](O)CC(=O)O` [Rosuvastatin calcium (Crestor)]: -0.384. Still for that read-out and setting: the same measure for `C[N+]1(C)[C@@H]2C[C@@H](OC(=O)[C@H](CO)c3ccccc3)C[C@H]1[C@@H]1O[C@@H]12` [Methscopolamine (Pamine)]: 1.49; for `CCC1=C(C)CN(C(=O)NCCc2ccc(S(=O)(=O)NC(=O)N[C@H]3CC[C@H](C)CC3)cc2)C1=O` [Glimepiride]: 0.467; for `CCOC(=O)CCC(=O)O[C@H]1[C@H](O[C@@H]2[C@@H](C)[C@H](O[C@H]3C[C@@](C)(OC)[C@@H](O)[C@H](C)O3)[C@@H](C)C(=O)O[C@H](CC)[C@@](C)(O)[C@H](O)[C@@H](C)C(=O)[C@H](C)C[C@@]2(C)O)O[C@H](C)C[C@@H]1N(C)C` [Erythromycin Ethylsuccinate]: 0.598. On the same count and under the same terms, the result for `CC[C@H]1OC(=O)[C@H](C)[C@@H](O[C@H]2C[C@@](C)(OC)[C@@H](O)[C@H](C)O2)[C@H](C)[C@@H](O[C@@H]2O[C@H](C)C[C@H](N(C)C)[C@H]2O)[C@](C)(O)C[C@@H](C)CN(C)[C@H](C)[C@@H](O)[C@]1(C)O` [Azithromycin Dihydrate] reads 0.341; that for `CNC(=O)Oc1ccc2c(c1)[C@]1(C)CCN(C)[C@@H]1N2C` [Physostigmine Salicylate], 0.219.

Consider `C[N+](C)(C)CCO.[Cl-]` [Choline Chloride], for which the log2 surviving fraction is -0.387. Still for that read-out and setting: the same measure for `CN1[C@@H]2CC[C@H]1C[C@@H](OC(=O)c1c[nH]c3ccccc13)C2` [Tropisetron]: 0.118; for `NCCC(O)(P(=O)(O)O)P(=O)(O)O` [Pamidronate Disodium]: 2.1; for `CC(C)CN(C[C@@H](O)[C@H](Cc1ccccc1)NC(=O)O[C@H]1CCOC1)S(=O)(=O)c1ccc(N)cc1` [Amprenavir (Agenerase)]: 0.176.

For the compound `CN1C2CCCC1CC(NC(=O)c1nn(C)c3ccccc13)C2` (configuration not stated) [Granisetron HCl], the log2 surviving fraction amounted to 0.609.

As to `CC1(C)[C@H](C(=O)O)N2C(=O)C[C@H]2S1(=O)=O` [Sulbactam], the log2 surviving fraction is -1.01. On the same count and under the same terms, the same measure for `CNC[C@H](O)c1ccc(O)c(O)c1` [Epinephrine bitartrate (Adrenalinium)]: -0.447; for `Cc1c(-c2ccc(O)cc2)n(Cc2ccc(OCCN3CCCCCC3)cc2)c2ccc(O)cc12` [Bazedoxifene HCl]: -6.06; for `O=C(C1CCCCC1)N1CC(=O)N2CCc3ccccc3C2C1` (configuration not stated) [Praziquantel (Biltricide)]: 0.509. Still for that read-out and setting: the result for `CCCc1nc2c(C)cc(-c3nc4ccccc4n3C)cc2n1Cc1ccc(-c2ccccc2C(=O)O)cc1` [Telmisartan (Micardis)] reads -1.07; that for `CCCCC(CC)CNC(=N)NC(=N)NCCCCCCNC(=N)NC(=N)NCC(CC)CCCC` (configuration not stated) [Alexidine HCl], -7.64; that for `CCCNC(C)C(=O)Nc1ccccc1C` (configuration not stated) [Prilocaine], -0.233. Consider `CC(=O)OCC(=O)[C@@]1(O)CC[C@H]2[C@@H]3CCC4=CC(=O)CC[C@]4(C)[C@H]3C(=O)C[C@@]21C` [Cortisone acetate (Cortone)], for which the log2 surviving fraction was determined as 0.543. On the same count and under the same terms, the result for `COc1ccc2[nH]c([S@@+]([O-])Cc3ncc(C)c(OC)c3C)nc2c1` [Esomeprazole magnesium (Nexium)] reads -0.00714; that for `CC1=C(/C=C/C(C)=C/C=C/C(C)=C/C=C/C=C(C)/C=C/C=C(C)/C=C/C2=C(C)CCCC2(C)C)C(C)(C)CCC1` [Beta Carotene], 0.263. Still for that read-out and setting: the result for `CSc1nc2cc(Cl)c(Oc3cccc(Cl)c3Cl)cc2[nH]1` [Triclabendazole] reads -0.139; that for `O=C(O)c1cc(=O)c2ccccc2o1` [Chromocarb], 0.48.

In the case of `Nc1nc(F)nc2c1ncn2[C@@H]1O[C@H](CO)[C@@H](O)[C@@H]1O` [Fludarabine (Fludara)], the log2 surviving fraction is -1.64. Same read-out and setting: the result for `COCCCOc1cc(C[C@@H](C[C@H](N)[C@@H](O)C[C@H](C(=O)NCC(C)(C)C(N)=O)C(C)C)C(C)C)ccc1OC` [Aliskiren hemifumarate] reads -0.975. With `CC[C@@H]1C(=O)OC[C@@H]1Cc1cncn1C` [Pilocarpine HCl], the log2 surviving fraction was 1.31. On the same count and under the same terms, the same measure for `COc1ccc([C@@H]2Sc3ccccc3N(CCN(C)C)C(=O)[C@@H]2OC(C)=O)cc1` [Diltiazem HCl (Tiazac)]: 0.476; for `O=c1n(CCCN2CCN(c3cccc(Cl)c3)CC2)nc2ccccn12` [Trazodone hydrochloride (Desyrel)]: 0.201; for `C[N+]1(C)[C@@H]2C[C@@H](OC(=O)C(O)(c3cccs3)c3cccs3)C[C@H]1[C@@H]1O[C@@H]12` [Tiotropium Bromide hydrate]: -0.0444.

The values are drawn from the supplement of paper PMC8047034.
